Results as given in patent publication US11839654B2, “Combination therapy” (Eli Lilly and Company, priority 2018, dated 2023).

What was measured:
[1] = test system: brain sections from wild type mouse that possess no human tau (background non-specific staining); experiment: Ex vivo target engagement: immunohistochemistry staining of control wild type mouse brain sections; assay type: binding; design: key: severe, +++; moderate, ++; mild, +; negative, −; conditions: WT control (murine) brain section
Method: (§1) Binding of exemplified anti-Tau antibody (having both HCs of SEQ ID NO.2 and both LCs of SEQ ID NO.1) to aggregated tau derived from human brains is determined through immunohistochemistry staining of formalin-fixed paraffin-embedded (FFPE) brain sections obtained from: a “normal” individual (displaying minimal tau aggregation); an AD patient (displaying severe tau aggregation and NFT formation pathology); a PD patient (displaying severe tau aggregation).
FFPE sections are de-paraffinized and rehydrated. Thereafter, antigen retrieval (using the Lab Vision PT module system, Thermo Scientific) is performed on the sections which includes heating sections in citrate buffer (Thermo Scientific, p/n. TA-250-PM1X) for 20 minutes at 100° C. then cooling the sections in dH2O. […]

[2] = test system: aggregated tau in FFPE brain sections; experiment: Ex vivo target engagement: immunohistochemistry staining of human FFPE brain sections; assay type: binding; design: key: severe, +++; moderate, ++; mild, +; negative, −
Method: as §1
FFPE sections are de-paraffinized and rehydrated. Thereafter, antigen retrieval (using the Lab Vision PT module system, Thermo Scientific) is performed on the sections which includes heating sections in citrate buffer (Thermo Scientific, p/n. TA-250-PM1X) for 20 minutes at 100° C. then cooling the sections in dH2O. Sections are then exposed to the following seven incubation steps (at room temp.): (1) 10 min. in 0.03% H2O2; (2) 30 min. in 1:20 dilution of normal goat serum (Vector Labs., p/n. S-1000) diluted in PBST; (3) 60 min. in exemplified anti-Tau antibody (normalized to 1 mg/ml, then diluted in PBST to a dilution of 1:4000 before incubation with sections); (4) 30 min. in rabbit anti-human IgG4 (raised against the Fc region of the exemplified antibody) at a concentration of 1.1 μg/ml in PBST; (5) 30 min. in 1:200 dilution of biotinylated goat anti-rabbit IgG (Vector Labs., p/n. BA-1000) diluted in PBST: (6) 30 min. in avidin-biotin complex solution (Vector Labs., p/n. PK-7100); (7) 5 min. in 3,3′-diaminobenzidine (Vector Labs., p/n. SK-4105). Sections are washed between each of the above 7 steps using PBST. Following the seven incubation steps above, sections are counterstained with haematoxylin, dehydrated and cover-slipped. For mouse “control” tissue sections the above protocol is modified in incubation step (3) by using a 1:8000 dilution (as opposed to a 1:4000 dilution) of exemplified anti-Tau antibody; and by replacing incubation steps (4) and (5) with a single 30 min. 1:200 dilution of biotinylated goat anti-human IgG (Vector Labs. p/n. BA-3000) in PBST. […]

[3] = test system: tau aggregation in hippocampus of P301S mice; experiment: In vivo neutralization of tau aggregate propagation in P301S mice (PG-5 immunoreactivity); design: species or system mouse; conditions: for Mean % PG-5 immunoreactivity: 7.5 μg antibody injected with homogenate, four weeks post-injection, ± SEM
Method: Homogenate preps of brain stem tissue from 4.5 to 5 month old P301S mice are prepared substantially the same as described above.
Normal 10 week old female P301S mice are injected in the left hemisphere of the hippocampus with 5 μl homogenate brain prep and either: 7.5 μg exemplified anti-Tau antibody (having both HCs of SEQ ID NO.2 and both LCs of SEQ ID NO.1) (N=12); or 7.5 μg of control human IgG4 antibody (N=11). Four weeks post-injection, the mice are sacrificed and the left and right hemispheres are collected, paraffin embedded, and 6 μm serial sections are mounted on glass slides. Slides containing bregma (A−P=−2.30) are de-paraffinized, embedded tissue is rehydrated, and antigen retrieval is performed by heating slide to 100° C. for 20 min. in citrate buffer. Slides are cooled in dH2O and incubated at room temperature according to the following steps: (a) 10 min. in (0.03%) H2O2; (b) 30 min. in a 1:20 dilution of normal goat serum; (c) 60 min. in a 1:8000 dilution of PG-5 antibody (diluted in PBST)(PG-5 antibody obtained from the lab of Dr. Peter Davies, Albert Einstein College of Medicine of Yeshiva University; PG-5 antibody specifically binds serine at residue 409 of tau when phosphorylated, residue numbering based on the exemplified human tau of SEQ ID NO.13); (d) 30 min. in a 1:200 dilution of biotinylated goat anti-mouse IgG antibody (diluted in PBST); (e) 30 min. in avidin-biotin complex solution; and (f) 5 min. in 3,3′-diaminobenzidine. PBST is used for washing between the respective steps. Following the 5 min. incubation in 3,3′-diaminobenzidine, sections are counterstained with haematoxylin, then rehydrated and cover-slipped. Staining signal is measured by Scanscope AT Slide Scanner (Aperio) at 20× magnification. PG-5 immunoreactivity is quantified and expressed as a percentage using the positive pixel algorithm of Imagescope Software (v. 11.1.2.780, Aperio).

human tau aggregates = human tau aggregates (Homo sapiens, UniProt P10636); experiment: SPR (BIACORE) binding to human tau aggregates; conditions: Tau Aggregate; 1:1 binding model, 25° C.
Chain of human tau aggregates (P10636 1-441 isoform P10636-8): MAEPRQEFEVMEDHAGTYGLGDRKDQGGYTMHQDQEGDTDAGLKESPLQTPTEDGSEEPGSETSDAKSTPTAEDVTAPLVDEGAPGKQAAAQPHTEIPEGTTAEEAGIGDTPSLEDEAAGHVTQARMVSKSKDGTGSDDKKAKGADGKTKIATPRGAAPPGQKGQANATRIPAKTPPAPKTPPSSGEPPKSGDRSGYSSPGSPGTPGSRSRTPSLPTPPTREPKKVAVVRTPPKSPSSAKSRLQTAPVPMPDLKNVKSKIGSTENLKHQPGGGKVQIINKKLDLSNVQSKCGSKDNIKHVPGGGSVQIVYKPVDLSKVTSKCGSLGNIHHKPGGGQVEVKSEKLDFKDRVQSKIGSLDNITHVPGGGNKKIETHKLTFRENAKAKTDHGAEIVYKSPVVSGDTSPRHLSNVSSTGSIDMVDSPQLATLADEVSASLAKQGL
Method: (§2) Surface Plasmon Resonance (SPR) assay, measured with a BIACORE® 2000 instrument (primed with HBS-EP+ running buffer (GE Healthcare, 10 mM Hepes pH7.4+150 mM NaCl+3 mM EDTA+0.05% surfactant P20) at 25° C.), is used to measure binding of an exemplified anti-Tau antibody (having both HCs of SEQ ID NO.2 and both LCs of SEQ ID NO.1) to both human monomeric (e.g., native or non-aggregate) tau and human tau aggregates (both having the amino acid sequence as set forth in SEQ ID NO.13).
(§3) Except as noted, all reagents and materials are from BIACORE® AB (Upsala, Sweden). A CMS chip containing immobilized protein A (generated using standard NHS-EDC amine coupling) on all four flow cells (FC) is used to employ a capture methodology. Antibody samples are prepared at 0.5 μg/mL by dilution into running buffer. […]
(§4) Data of binding to tau aggregate is processed using standard double-referencing and fit to a 1:1 binding model using Biacore 2000 Evaluation software, version 4.1, to determine the association rate (kon, M^−1s^−1 units), dissociation rate (koff, s^−1 units), and Rmax (RU units). The equilibrium dissociation constant (KD) was calculated from the relationship KD=koff/kon, and is in molar units. Data of binding to monomeric tau cannot be determined accurately by SPR as described above due to rapid on- and off-rates. […]

[4] = biological target: human monomeric (e.g., native or non-aggregate) tau (Homo sapiens, UniProt P10636); experiment: SPR (BIACORE) binding to human monomeric tau; conditions: 25° C.
Chain of human monomeric (e.g., native or non-aggregate) tau (P10636 1-441 isoform P10636-8): as above
Method: as §2, §3, §4

B1: Exemplified anti-Tau mAb: anti-Tau antibody having both HCs of SEQ ID NO.2 and both LCs of SEQ ID NO.1 (antibody)
heavy: EVQLVQSGAEVKKPGESLKISCKGSGYTFSNYWIEWVRQMPGKGLEWMGEILPGSDSIKYEKNFKGQVTISADKSISTAYLQWSSLKASDTAMYYCARRGNYVDDWGQGTLVTVSSASTKGPSVFPLAPCSRSTSESTAALGCLVKDYFPEPVTVSWNSGALTSGVHTFPAVLQSSGLYSLSSVVTVPSSSLGTKTYTCNVDHKPSNTKVDKRV[left out - human IgG4 Fc with S228P F234A L235A (EU numbers)]
light: EIVLTQSPGTLSLSPGERATLSCRSSQSLVHSNQNTYLHWYQQKPGQAPRLLIYKVDNRFSGIPDRFSGSGSGTDFTLTISRLEPEDFAVYYCSQSTLVPLTFGGGTKVEIKRTVAAPSVFIFPPSDEQLKSGTASVVCLLNNFYPREAKVQWKVDNALQSGNSQESVTEQDSKDSTYSLSSTLTLSKADYEKHKVYACEVTHQGLSSPVTKSFNRGEC
modifications: HC of exemplified anti-Tau antibody; LC of exemplified anti-Tau antibody
[1]
  Severity of aggregated tau detected, semi quantitative score: −
[2]; Alzheimer's disease brain section
  Severity of aggregated tau detected, semi quantitative score: +++
[2]; Normal control (human) brain section
  Severity of aggregated tau detected, semi quantitative score: +
[2]; Pick's disease brain section
  Severity of aggregated tau detected, semi quantitative score: +++
[3]; Left Hippocampus
  Mean % PG-5 immunoreactivity: 2.52 ± 0.49 SEM %
[3]; Right Hippocampus
  Mean % PG-5 immunoreactivity: 0.63 ± 0.13 SEM %
[3]; left hippocampus
  greater reduction in tau aggregation compared to control IgG4 antibody: 60.5%
[3]; right hippocampus
  greater reduction in tau aggregation compared to control IgG4 antibody: 66.5%
Human tau aggregates
  koff: <1e-05 M⁻¹ s⁻¹
  kon: 45900 M⁻¹ s⁻¹
[4]
  koff: Not detectable
  kon: Not detectable
